According to PubChem BioAssay AID995 (National Center for Advancing Translational Sciences (NCATS), 2007):
Values joined by “and” are separate entries in the source; they are usually repeats but may differ in a detail not shown here. Equal values may be shown once. Out of some 72,000 compounds screened, about 710 (0.99%) were called active. This list was built around the results that the source calls inconclusive (neither active nor inactive); the mix of calls is not that of the screen. Calls come from the whole dose curve; as a rule, active = well fitted inhibition curve with a large enough effect; inconclusive = small, poorly fitted or top-dose-only effect; inactive = no such curve, though single readings can be large or run the other way. Where the call is inconclusive, the potency comes from a doubtful curve fit.

Test: qHTS Assay for Inhibitors of the ERK Signaling Pathway using a Homogeneous Screening Assay; note: nearly all actives have a fitted effect of over 55% in size
Conditions: HEK293-V1b, vasopressin-stimulated pERK AlphaScreen; activity, negative = inhibition: at 57.5 µM (top of the series) unless noted
Procedure, shortened: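 Phosphorylated ERK1/2 detected via AlphaScreen bead proximity in lysates of V1b-expressing HEK293 cells given 25 nM vasopressin for 5 min after 30 min compound exposure (37 °C). AC50 from Hill equation; basal DMSO 0%, vasopressin 100%.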
% is set by controls: 0 for no effect and ±100 for the full control effect; potency is the fitted concentration of half-maximal effect; tags give direction and shape of the fitted curve.

Potency, active:
N#Cc1cccc(-c2cc(NCc3ccccc3)ncn2)c1 20 µM
c1ccc(-c2cc3c(N4CCOCC4)ncnc3s2)cc1 20 µM
Oc1ccc(-c2nc(-c3ccc(F)cc3)c(-c3ccncc3)[nH]2)cc1 7.94 µM
CN(Cc1ccccc1)c1nc2c(c(=O)[nH]c(=O)n2C)n1CCOc1ccccc1 12.6 µM
O=C(Cc1ccccc1)N1CCC(c2nc(-c3ccc(F)cc3)no2)CC1 20 µM

Potency, inactive:
O=C(Nc1cnc2ccccc2c1)N1CCOCC1
Cc1cc(C(=O)CSc2nncs2)c(C)n1-c1c(C)n(C)n(-c2ccccc2)c1=O
CCOC(=O)c1c(C)[nH]c(C(=O)Nc2ccc3c(c2)OCO3)c1C
Cc1ccccc1OCC(O)Cn1c(=N)n(CCN2CCOCC2)c2ccccc21 (stereo not drawn)
COc1cc(C)c(C(C)C)cc1S(=O)(=O)N1CCN(C)CC1
Cc1nc(NCc2ccccc2)c2nc(-c3ccccc3)n(CC3CCN(C)CC3)c2n1
Nc1nc2c(nc(Br)n2[C@@H]2O[C@H]3COP(=O)(O)O[C@@H]3[C@H]2O)c(=O)[nH]1
OC(COc1ccc(Br)cc1)CN1CCOCC1 (stereo not drawn)
CCCN(CCC)c1nc(C)cc(C(C#N)c2nc3ccccc3o2)n1 (stereo not drawn)
Cc1ccc2c(c1)c1c(n2C)C(C(N)=O)CCC1 (stereo not drawn)
O=C(Nc1ccc2nc(-c3cccs3)c(-c3cccs3)nc2c1)N1CCOCC1
Cc1onc(-c2ccccc2)c1C(=O)Nc1nnc(COc2ccc(Cl)cc2)s1
C[C@H]1CC[C@@H]2[C@@H](C)[C@H]3[C@H](C[C@H]4[C@@H]5CC=C6C[C@@H](O[C@]7(O[C@H]8O[C@@H](C)[C@@H](O)[C@@H](O)[C@@H]8O)C[C@@H](O[C@@H]8O[C@H](CO)[C@@H](O)[C@H](O)[C@@H]8O)[C@@H](O)[C@H](CO)O7)CC[C@]6(C)[C@H]5CC[C@@]34C)N2C1
Clc1c(CSc2nc3ccccc3o2)nc2sccn12
O=C1NCCCC2c3c(cc(Br)c(O)c3Br)OC12N1CCOCC1 (stereo not drawn)
c1ccc(COn2c(-c3ccccc3)nc3c2CCc2nonc2-3)cc1
CCCCOc1ccccc1C1CC(=O)NC2=C1C(=O)CCC2 (stereo not drawn)

Potency, inconclusive:
COc1ccc(/C=N/n2cc(-c3ccc(OC)cc3)nc2N)cc1 15.8 µM [inhibitor, partial curve]
CCCCn1c(CN2CCN(c3cccc(Cl)c3)CC2)nc2c1c(=O)n(C)c(=O)n2C 15.8 µM [inhibitor, partial curve]
Cc1nc2ccccc2n1-c1ccccc1 31.6 µM [inhibitor, single point]
c1ccc2c(c1)[nH]c1nc(SCCN3CCOCC3)nnc12 10 µM [inhibitor, partial curve]
CCn1cc(C(=O)NCCCOC)c(=O)c2cc(S(=O)(=O)N(C)C)ccc21 25.1 µM [inhibitor, single point]
N#CC1=C(N)C(C#N)(C#N)C(c2cccnc2)C2CCCC=C12 (stereo not drawn) 7.94 µM [inhibitor, partial curve]
COc1cc(-c2nnc(-c3cccnc3)o2)cc(OC)c1OC 25.1 µM [inhibitor, partial curve]
CC1(C)NC(=O)N(CCCSc2ccc(Cl)cc2)C1=O 20 µM [inhibitor, partial curve, poor fit]
COc1cccc(Cn2c(=O)c(C)nc3cnc(Nc4cccc(OC)c4)nc32)c1 25.1 µM [inhibitor, single point]
c1csc(CNc2nc(-c3ccc4c(c3)OCO4)nc3ccccc23)c1 7.94 µM [inhibitor, partial curve, poor fit]
O=C(COc1cccc(NC(=O)c2ccco2)c1)c1ccc(F)cc1 39.8 µM [inhibitor, partial curve]
O=c1c(-c2ccc(Cl)cc2)nc2cnc(Nc3ccccc3)nc2n1C1CC1 12.6 µM [inhibitor, partial curve, poor fit]
CC1(C)CC(=O)C2=C(C1)NC(SCC(=O)Nc1ccccc1)=C(C#N)C21CCCCC1 39.8 µM [inhibitor, single point]
O=C1C=C(N2CCN(c3ccccn3)CC2)C(=O)c2c(O)ccc(O)c21 3.98 µM [inhibitor, single point]
COc1ccccc1-n1cnc2cc(C(=O)NCc3ccco3)ccc21 39.8 µM [inhibitor, single point]
Cc1c(C(=O)N(C)Cc2ccccc2)oc2ccc(S(=O)(=O)N3CCCC3)cc12 25.1 µM [inhibitor, partial curve]
O=C1Nc2ccccc2C12Nc1ccccc1-c1nc3ccccc3n12 (stereo not drawn) 31.6 µM [inhibitor, single point]
O=C(O)c1ccc2cc(-c3ccc(O)c(C45CC6CC(CC(C6)C4)C5)c3)ccc2c1 39.8 µM [inhibitor, single point]
O=C(CSC1=NCCS1)Nc1nc(-c2ccccc2)cs1 2 µM [inhibitor, partial curve]
CCOc1ccc(-c2nnc(-c3cccnc3)o2)cc1OCC 15.8 µM [inhibitor, partial curve]
CCN(CCNC(=O)C1CCN(Cc2nc(-c3ccc(Cl)cc3)oc2C)CC1)c1ccccc1 31.6 µM [inhibitor, single point]
O=C1c2ccccc2C(Nc2cccnc2)N1Cc1ccc2c(c1)OCO2 (stereo not drawn) 12.6 µM [inhibitor, partial curve]
CN1CCc2cc(O)c(O)cc2[C@H](c2ccccc2)C1 12.6 µM [inhibitor, partial curve]
O=C1O/C(=C\Br)CC[C@@H]1c1cccc2ccccc12 39.8 µM [inhibitor, single point]
C=CCn1c(-c2ccc(OC)c(OC)c2)cs/c1=N\c1ccccn1 15.8 µM [inhibitor, single point]
Cc1cc(N2CC(=O)N(CCc3ccccc3)C(=O)C2)n2ncnc2n1 15.8 µM [inhibitor, partial curve]
CN(C)c1nc(Nc2ccc(Cl)cc2)nc(OCC#N)n1 31.6 µM [inhibitor, single point]
COc1ccc(C(=O)CSc2nnc(COc3ccccc3)n2Cc2ccco2)cc1 15.8 µM [inhibitor, partial curve]
Cc1ccc(-n2c(SCC(=O)Nc3ccc4c(c3)OCO4)nnc2-c2cccs2)cc1 7.94 µM [inhibitor, partial curve]
COCCn1c(=O)c(C)nc2cncnc21 2.51 µM [inhibitor, partial curve]
O=S1(=O)CCC(NS(=O)(=O)c2cccc3cccnc23)C1 (stereo not drawn) 39.8 µM [inhibitor, single point]
CCOC(=O)c1sc(NC(=O)COC(=O)Cn2cnc3ccccc32)c(C(=O)OCC)c1C 10 µM [inhibitor, partial curve]
CCOC(=O)c1cnc2c(cnn2CC)c1NN=C(C)C 12.6 µM [inhibitor, partial curve] and 25.1 µM [inhibitor, partial curve, poor fit]
O=C(Nc1cccnc1)c1cnn2c(C(F)F)cc(C3CC3)nc12 15.8 µM [inhibitor, partial curve]
COc1ccc(N2CCN(S(=O)(=O)c3cccs3)CC2)cc1 12.6 µM [inhibitor, partial curve]
COCCSc1nnc(NC(=O)Cc2ccccc2OC)s1 3.16 µM [inhibitor, single point]
CCN1CCN(c2cc(C)c3cc(NC(=O)c4cnccn4)ccc3n2)CC1 12.6 µM [inhibitor, partial curve]
COc1ccc(NS(=O)(=O)c2ccc(NC(=O)C3CCCO3)cc2)cc1 (stereo not drawn) 12.6 µM [inhibitor, partial curve]
O=C(Nc1ccc2c(c1)OCO2)c1ccc(CN2CCOCC2)cc1 31.6 µM [inhibitor, single point]
O=C(CSc1nnc(CNc2ccc(Cl)cc2)n1Cc1ccccc1)NCc1ccco1 31.6 µM [inhibitor, single point]
CC(=O)Nc1cccc(NC(=O)c2cc3ccccc3o2)c1 39.8 µM [inhibitor, single point]
COc1ccccc1NC(=O)N1CCCC1C(=O)Nc1ccc(NC(C)=O)cc1 (stereo not drawn) 3.16 µM [inhibitor, single point]

activity, negative = inhibition, inconclusive:
COc1ccc(N2CCN(c3nc4c(c(=O)[nH]c(=O)n4C)n3Cc3ccccc3Cl)CC2)cc1 -32.6% [inhibitor]

activity, negative = inhibition, inactive:
CO[C@H]1COC(=O)C/C=C\[C@H](C)[C@@H](NS(=O)(=O)c2ccc(C)cc2)COC(=O)C/C=C\[C@@H]1C 15.4% [at 11.5 µM] and 13.5% [at 11.5 µM]
Oc1ccc(Cc2nccc3cc(O)c(O)cc23)cc1O -5.8% [at 11.5 µM]
CC(CC(=O)O)(CC(=O)O)c1ccccc1 9.04% [at 11.5 µM]
